# Data published in PubChem BioAssay AID1347165 (National Center for Advancing Translational Sciences (NCATS), 2019).
# Out of some 220,000 compounds screened, about 5,700 (2.6%) were called active. The shares of active, inactive and inconclusive entries below differ from those in the screen. Calls follow the shape of the dose curve; as a rule, active = well fitted inhibition curve with a large enough effect; inconclusive = small, poorly fitted or top-dose-only effect; inactive = no such curve, though single readings can be large or run the other way. A potency beside an inconclusive call is a rough fit, not a confirmed value.
# Biological target: Lysine-specific demethylase 5B (Homo sapiens) (UniProt Q9UGL1)
# Test: Primary screen for KDM5B Histone Demethylases FDH-coupled qHTS; also: nearly all actives have a fitted effect of over 70% in size; as to activity change, negative = inhibition: 0% is about no effect
# Conditions: FDH-coupled NADH fluorescence (FDH is formaldehyde dehydrogenase); activity change, negative = inhibition: at 57.7 µM (top of the series) unless noted
# In short: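 qHTS format, multiple compound concentrations. Buffer 50 mM HEPES pH 7.5/0.01% Tween-20; 200 nM KDM5BΔAP final; 10 min compound preincubation; substrate-mix levels 12.5 µM peptide, 25 µM α-KG, 0.25 mM NAD⁺; 30 min RT; ΔRFU.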
# Potency is read from the fitted curve at half-maximal effect; tags tell the direction and shape of the fitted curve.
# UniProt Q9UGL1, sequence (Q9UGL1 whole entry, looked up): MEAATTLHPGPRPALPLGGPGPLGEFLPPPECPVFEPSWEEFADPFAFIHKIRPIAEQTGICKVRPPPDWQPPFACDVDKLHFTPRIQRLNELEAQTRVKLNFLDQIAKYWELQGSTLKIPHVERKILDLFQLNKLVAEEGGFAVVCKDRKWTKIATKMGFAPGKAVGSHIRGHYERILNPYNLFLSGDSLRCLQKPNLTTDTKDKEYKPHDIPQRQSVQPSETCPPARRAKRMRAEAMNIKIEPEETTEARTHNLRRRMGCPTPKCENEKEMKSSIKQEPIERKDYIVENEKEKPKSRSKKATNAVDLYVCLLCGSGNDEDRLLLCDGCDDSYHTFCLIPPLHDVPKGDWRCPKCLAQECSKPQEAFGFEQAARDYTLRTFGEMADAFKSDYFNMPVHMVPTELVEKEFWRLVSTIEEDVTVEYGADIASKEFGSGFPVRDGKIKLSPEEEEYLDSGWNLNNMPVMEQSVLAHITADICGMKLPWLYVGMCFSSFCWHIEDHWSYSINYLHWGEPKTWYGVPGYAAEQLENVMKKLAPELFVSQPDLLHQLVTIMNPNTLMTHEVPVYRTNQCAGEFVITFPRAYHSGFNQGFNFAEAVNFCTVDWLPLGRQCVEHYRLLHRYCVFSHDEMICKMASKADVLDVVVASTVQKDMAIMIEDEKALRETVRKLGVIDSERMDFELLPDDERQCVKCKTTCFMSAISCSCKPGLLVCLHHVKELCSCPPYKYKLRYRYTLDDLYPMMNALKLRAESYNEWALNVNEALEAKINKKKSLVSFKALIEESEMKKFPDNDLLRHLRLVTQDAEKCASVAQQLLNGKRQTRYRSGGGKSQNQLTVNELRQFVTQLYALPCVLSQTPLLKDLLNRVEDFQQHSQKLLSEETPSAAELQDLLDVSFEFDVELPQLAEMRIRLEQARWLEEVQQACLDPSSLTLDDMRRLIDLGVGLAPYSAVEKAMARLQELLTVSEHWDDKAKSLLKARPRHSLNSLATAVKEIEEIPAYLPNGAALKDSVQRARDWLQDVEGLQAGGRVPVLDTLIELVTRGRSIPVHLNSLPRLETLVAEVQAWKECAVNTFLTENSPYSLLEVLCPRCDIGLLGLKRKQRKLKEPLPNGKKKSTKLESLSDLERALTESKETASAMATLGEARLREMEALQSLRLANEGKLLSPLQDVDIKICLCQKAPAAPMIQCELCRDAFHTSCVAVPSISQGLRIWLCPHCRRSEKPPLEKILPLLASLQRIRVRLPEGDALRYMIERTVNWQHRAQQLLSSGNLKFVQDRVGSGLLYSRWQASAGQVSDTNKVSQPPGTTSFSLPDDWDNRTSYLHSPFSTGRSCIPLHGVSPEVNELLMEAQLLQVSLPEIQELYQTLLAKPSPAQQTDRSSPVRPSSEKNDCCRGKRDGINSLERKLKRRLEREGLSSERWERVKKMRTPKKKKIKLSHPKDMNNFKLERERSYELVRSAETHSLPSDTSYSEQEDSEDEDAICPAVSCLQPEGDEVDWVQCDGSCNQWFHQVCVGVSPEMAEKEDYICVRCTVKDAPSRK
Compound,Potency,"activity change, negative = inhibition"
Cc1ccc(S(=O)(=O)c2cn(C)c3cc(N4CCCC(C)C4)c(F)cc3c2=O)c(C)c1 (centres undefined),"inconclusive: 3.16 µM [inhibitor, full curve, poor fit]",–
Cc1nc(N2CCCC2)ncc1C(=O)Nc1ccc(F)cc1F,–,inconclusive: -32.5% [inhibitor]
COc1ccc(-c2cc3nc4c(c(=O)n3[nH]2)CN(C(=O)c2ccc(C)nc2)CC4)cc1,"inconclusive: 3.55 µM [inhibitor, partial curve, poor fit]",–
COc1cc(-c2nc3c(s2)CN(C(C(=O)O)c2c[nH]c4cc(F)ccc24)CC3)cc(OC)c1OC (centres undefined),"inconclusive: 28.2 µM [inhibitor, partial curve, poor fit]",–
CC(SC(C)c1c(F)cccc1F)C(=O)NC(N)=O (centres undefined),inactive,–
COc1ccc(OCC(=O)Nc2cccc(-c3nc4ccccc4s3)c2C)cc1,"inconclusive: 35.5 µM [inhibitor, single point]",–
CN1C(=O)C(NC(=O)C(=O)NCCc2c[nH]c3ccc(Cl)cc23)c2ccccc21 (centres undefined),inactive,–
Cc1cc(C)n2nc(C(=O)NCC3COc4ccccc4C3)cc2n1 (centres undefined),active: 22.4 µM,–
Nc1nc(Cl)nc(Nc2ccccc2)c1[N+](=O)[O-],inactive,–
COc1ccc(OC)c(NC(=O)N2c3ccccc3CC2c2nc(C3CC3)no2)c1 (centres undefined),"inconclusive: 39.8 µM [inhibitor, partial curve, poor fit]",–
Cc1ccccc1/C=C/C(=O)c1ccco1,"inconclusive: 35.5 µM [inhibitor, single point]",–
O=Cc1ccc(OCc2cccc3ccccc23)c(Cl)c1,inactive,–
O=C(NCc1ccccc1)c1ccc(CSc2nc3cccnc3n2Cc2ccccc2F)cc1,"inconclusive: 17.8 µM [inhibitor, partial curve, poor fit]",–
CN(C)C[C@@H]1CN(C)C[C@H]1NC(=O)c1cc2ccccc2[nH]1,active: 25.1 µM,–
CCCCN1C(=O)C(=O)N(Cc2ncc(-c3ccc(F)cc3)o2)C1=O,inactive,–
COc1ccc(CCC(=O)N2CC[C@H]3C(=O)NCCCCCCN(Cc4ccncc4)[C@@H]3C2)cc1,"inconclusive: 28.2 µM [inhibitor, single point]",–
CC(C)Cn1c(-c2ccc(C#N)cc2)nc2c1c(=O)[nH]c(=O)n2CC(C)C,"inconclusive: 17.8 µM [inhibitor, partial curve, poor fit]",–
COc1ccc(NC(=O)C2(C)CCCc3cnc(NCc4ccccc4)nc32)cn1 (centres undefined),"inconclusive: 5.62 µM [inhibitor, partial curve, poor fit]",–
NC(=O)c1nsc(C(=O)N(CC(=O)NC2CCCC2)c2ccc(F)c(Cl)c2)c1N,"inconclusive: 25.1 µM [inhibitor, partial curve, poor fit]",–
COc1cc(C)c(-c2nc(Cn3cccn3)c(C)o2)cc1C,"inconclusive: 2.24 µM [inhibitor, partial curve, poor fit]",–
CN1CC(=O)N(C2CCNC2)Cc2c(NCC(C)(C)C)ncnc21 (centres undefined),"inconclusive: 50.1 µM [inhibitor, partial curve, poor fit]",–
CCOc1cccc(CN2CCC3(CC2)CC(CC(=O)N2CCCC2)CCO3)c1 (centres undefined),inactive,–

Compound,Potency,"activity change, negative = inhibition"
N#Cc1ccccc1COC(=O)c1ccc2ccccc2c1,inactive,–
CCOc1ccc(CC(=O)N[C@@H]2CN(c3ncccn3)C[C@H]2CN(C)C)cc1,active: 25.1 µM,–
CCc1nc(NC(=O)c2ccc(C#N)cc2)sc1C,"inconclusive: 39.8 µM [inhibitor, single point]",–
O=C(c1ccc(F)cc1)N1CCCN(Cc2ccc3c(c2)OCO3)c2ccccc21,"inconclusive: 20 µM [inhibitor, partial curve]",–
Cc1ccc(CNC(=O)c2ccc3c(c2)CN(C2CCN(CC(C)C)CC2)CCO3)cc1,"inconclusive: 35.5 µM [inhibitor, partial curve, poor fit]",–
Nc1ccc2[nH]ccc2c1,"inconclusive: 15.8 µM [inhibitor, partial curve, poor fit]",–
COCc1cccc(-c2n[nH]c3c2CC(=O)N(CC2CC2)C3)c1,inactive,–
COc1cccc(C2C(C(=O)Nc3ccccc3)=C(C)Nc3nc(-c4ccccc4)nn32)c1OC (centres undefined),"inconclusive: 0.631 µM [inhibitor, partial curve, poor fit]",–
CCCNC(=O)CCC(=O)N1CCCn2nc(-c3cn(C)c4ccccc34)cc21,inactive,–
O=C1Nc2ccc(-c3cccs3)cc2C(=O)N2CC[C@H](NS(=O)(=O)c3ccc(Cl)cc3)C[C@@H]12,active: 31.6 µM,–
O=C(CSc1nnc2[nH]c(=O)cc(-c3ccccc3)n12)Nc1ccc(F)cc1F,"inconclusive: 35.5 µM [inhibitor, partial curve, poor fit]",–
COc1cc2cc(-c3ccc(OC)c(OC)c3C)nc(N)c2cc1OC,"inconclusive: 39.8 µM [inhibitor, single point]",–
O=C(O)CCS(=O)(=O)Nc1ccccc1,inactive,–
Cc1ccc(C2=CC(c3c(F)cccc3Cl)n3ncnc3N2)cc1C (centres undefined),"inconclusive: 35.5 µM [inhibitor, partial curve, poor fit]",–
COc1cccc(/C=C(\C#N)c2nc3ccccc3[nH]2)c1OC,"inconclusive: 39.8 µM [inhibitor, single point]",–
CC(=O)Nc1cc(-c2nc3ccccc3s2)ccc1C,"inconclusive: 35.5 µM [inhibitor, partial curve, poor fit]",–
Cc1ncc(-c2ccc(F)c3cccnc23)nc1C,"inconclusive: 17.8 µM [inhibitor, single point]",–
COc1cc(C(=O)OCC(=O)NC(C)C(C)C)cc(Cl)c1OC (centres undefined),inactive,–
O=C(COC(=O)c1cc(=O)[nH]c2ccccc12)c1cccc2ccccc12,inactive,–
N#Cc1nc(-c2ccc(Cl)cc2)oc1N1CCCC1,inactive,–
CCOCc1ccc(CNC(=O)/C=C/c2ccc(C)o2)cc1,"inconclusive: 31.6 µM [inhibitor, partial curve, poor fit]",–
Cc1ccc(C(=O)N2CCN(C(=O)c3nnn4c3COC(c3ccccc3)C4)CC2)c(C)c1 (centres undefined),inactive,–
